# Laboratory results published in the supplement of paper PMC12217912.
# The list shows a part of the results. The full chains were built here from the parent and the listed change. Values near 0.05 are background.
# B1: TEV protease; numbered along this chain (parent)
# chain: MGESLFKGPRDYNPISSSICHLTNESDGHTTSLYGIGFGPFIITNKHLFRRNNGTLVVQSLHGVFKVKDTTTLQQHLVDGRDMIIIRMPKDFPPFPQKLKFREPQREERICLVTTNFQTKSMSSMVSDTSCTFPSGDGIFWKHWIQTKDGQCGSPLVSTRDGFIVGIHSASNFTNTNNYFTSVPKNFMELLTNQEAQQWVSGWRLNADSVLWGGHKVFMVKPEEPFQPVKEATQL
# Variants of: B1
# Experiment: raw area under fraction-flipped curve 0-4 h after induction (AUC4h, not background-subtracted), DNA-recorder readout of cleavage of the substrate (dimensionless); higher = more cleavage of the substrate by the protease variant
# Conditions: temperature: 34 °C; time window: 0-4 h after rhamnose induction
# Method: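 In vivo DNA recorder in E. coli TOP10(DE3) ΔrhaA at 34 °C. Each TEVp single-site mutant (parent TEVp 0) is paired with a single-site variant of the 7-mer TEVs (canonical ENLYFQ|S). The substrate sits between flexible linkers in a Bxb1-sfGFP-TEVs-SsrA fusion, so cleavage stabilises Bxb1 and speeds flipping of a recombination array, read by NGS. The value is the raw area under the fraction-flipped curve over 0-4 h after rhamnose induction (AUC4h), with ≥20 reads per time point. It is not background-subtracted; inactive controls average about 0.047.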
# 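Further: Bxb1 expression induced with 0.2% (w/v) L-rhamnose at OD600 near 0.5, cultures sampled hourly, flipped fraction per protease–substrate barcode pair counted by paired-end Illumina sequencing.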
Variant,area with substrate ENLAFQS,area with substrate ENLDFQS,area with substrate ENLEFQS,area with substrate ENLFFQS,area with substrate ENLKFQS,area with substrate ENLLFQS,area with substrate ENLRFQS,area with substrate ENLIFQS,area with substrate ENLHFQS,area with substrate ENLNFQS
D91S,0.0731,0.065,0.0574,0.0793,0.0708,0.0739,0.0718,,,
F163N,0.0586,0.0733,,0.0996,,0.0727,,0.0835,,
P228W,0,,,0.0907,0.0699,,,,0.0771,0.0571
P228R,0.0684,0.0468,,,,,,0.104,0.0668,0.0575
N178S,0.0855,0.0699,,0.118,0.0557,,0.0825,,,0.0599
D137H,0.0777,0.064,0.0621,0.0977,0.0379,0.0703,,,0.0906,
D137T,0.0721,0.0832,,0.0908,,,0.065,,,
V210P,0.052,0.0642,,0.0802,,,0.0493,,,0.0534
S18G,0.0682,0.0733,,0.115,0.0849,0.0836,0.0664,,0.0618,0.0658
I84N,0.059,,0.048,0.0651,,,0.0495,,0.0559,0.0561
Q59H,0.0645,0.0563,0.0773,0.0897,0.0775,0.0628,,,0.069,0.0576
V217E,0.0762,,,,0.0616,,,,,
I15G,0.0463,0.0595,0.0835,,0.0631,,0.0703,0.0669,0.0654,0.0562
E25S,0.0747,0.0566,0.0605,0.0975,0.0677,0.0797,0.0901,0.0794,,0.0689
S154D,0.064,,,0.0383,0.0743,,,,,
R51N,0.0789,,,0.0698,0.0558,,,,,0.0664
T115Q,0.0588,0.0477,0.0685,0.0675,0.0901,0.0646,0.0708,0.0895,0.0732,0.0756
D82M,0.0594,0.0862,0.0558,0.0494,0.0465,,,,,0.0465
G35T,0.0459,0.0456,0.0226,0.0375,0.0558,,,,0.0347,
G35S,0.0588,0.054,,,,0.0523,,,,

Variant,area with substrate ENLAFQS,area with substrate ENLDFQS,area with substrate ENLEFQS,area with substrate ENLFFQS,area with substrate ENLKFQS,area with substrate ENLLFQS,area with substrate ENLRFQS,area with substrate ENLIFQS,area with substrate ENLHFQS,area with substrate ENLNFQS
G2Y,0.0822,,0.0781,0.105,0.103,0.113,,,,0.0735
G2F,0.0704,0.0677,,0.101,0.102,,0.0829,0.107,0.0815,
G2K,0.0718,,,0.16,,,,,0.0772,0.0588
L205Y,0.0489,0.0781,0.0623,0.0781,,0.0624,0.0594,0.0456,0.0673,0.068
F187A,0.0658,0.0571,0.0551,0.0767,0.0554,,0.0693,0.0738,0.059,0.0533
A207R,0.0698,0.0623,,0.0841,0.066,,0.0668,,,0.0538
T114N,0.0718,,0.0682,0.0916,,,,,,0.0679
I145G,0.052,0.0674,,0.0724,0.0826,,,,0.0895,
T70F,0.0525,,,0.0773,0.0685,,0.0766,,,
F65I,0.0535,0.0672,0.0662,0.0605,,0.0711,,0.0852,,
S182H,0.0659,0.0554,0.0553,0.0623,0.0438,,0.0485,,0.0525,0.0517
L99I,0.0806,0.0647,,,0.0834,,,,0.064,
K7Y,0.0761,,,0.0925,0.0739,,,,0.0405,0.0401
E231I,0.0548,0.0711,,0.0802,0.0471,,,0.044,0.0705,0.0611
N177T,0.0765,0.067,0.0516,0.102,,,,,0.102,0.0882
N172Q,0.0583,,0.0556,,,0.0469,,,,
Q97L,0.0626,,,0.0715,0.071,0.1,,,,
Q97C,0.103,,,,0.0787,,,,,
Q97N,0.0667,,,,0.0976,,,,,0.0686
Q197R,0.0426,,0.0455,0.0722,0.0498,,0.0754,,0.0575,

# Same assay, conditions: temperature: 34 °C; time window: 0-4 h after rhamnose induction
Variant,area with substrate ENLQFQS,area with substrate ENLGFQS,area with substrate ENLPFQS,area with substrate ENLVFQS,area with substrate ENLWFQS,area with substrate ENLMFQS,area with substrate ENLSFQS,area with substrate ENLCFQS,area with substrate ENLTFQS
P228W,0.07,,,,,,,,
P228R,0.0662,0.0626,0.058,0.0871,0.0909,,,,
N178S,,,0.0642,,0.0535,0.0802,0.0704,,
D137H,,0.0751,0.0632,0.0897,,,0.0657,0.059,0.0985
D137T,,,,,,,0.0672,,
V210P,,,,,0.0382,,,,
S18G,0.0474,,0.0539,,,0.0847,,,0.0526
I84N,,0.0327,0.0554,,,,,,
Q59H,0.0706,,,,0.105,,0.0654,0.0653,
V217E,0.0722,,0.0791,,,,,,
I15G,0.0604,0.0642,,0.0643,,,0.0638,0.0705,
E25S,0.0517,0.0664,0.0726,,0.0743,,0.0709,0.0704,
S154D,,0.0485,,,,,,,
R51N,0.0574,,,,,,,,
T115Q,0.101,,0.0664,0.0885,0.0718,,0.0615,0.0678,
D82M,0.054,,,,,0.0664,,,

Variant,area with substrate ENLQFQS,area with substrate ENLGFQS,area with substrate ENLPFQS,area with substrate ENLVFQS,area with substrate ENLWFQS,area with substrate ENLMFQS,area with substrate ENLSFQS,area with substrate ENLCFQS,area with substrate ENLTFQS
G35T,0.0335,,0.0517,,,,0.0483,,
G2F,0.118,,0.0679,,,,0.0731,0.0944,
G2K,0.0662,,0.0515,,0.0906,,0.0672,,
L205Y,,,0.0679,,0.0589,,0.06,,
F187A,,0.0679,,,0.0607,,0.0689,,
A207R,0.0499,0.0703,,,,,0.0814,,
T114N,0.0751,,0.0985,,0.0585,0.0756,0.0594,,
I145G,0.0708,,0.0475,,0.0632,0.0649,,,
T70F,,,,,,0.0887,,,
F65I,,,0.0676,,,,,0.0575,0.0711
L99I,,,0.0522,,,,0.0569,,
K7Y,0.0683,0.0549,0.0684,,,0.104,0.0662,,
E231I,0.0731,0.0741,,0.073,,,0.0774,0.0899,0.0814
N177T,0.103,,,0.148,,,,,
Q97L,,,0.0722,,,,,,
Q197R,0.0691,,,0.0664,,,0.0428,0.0662,
